The record followed here is the supplement of paper PMC11417369.

This is one part of the list.

The subject of the experiment is PfAP2-HC AP2 domain (GST-tagged). Description: gcPBM binding intensity (ln(normalized median fluorescence intensity)); higher = stronger DNA binding. A digest of the protocol: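 Alexa488 anti-GST antibody, scanned at 488 nm, detected GST-tagged P. falciparum DNA-binding domains that had been expressed in E. coli and incubated for 1 h on an Agilent 4 × 180k array. The array carried primer-extended double-stranded 36-bp intergenic genomic probes and negative controls. Binding intensity is the highest Masliner-normalised natural-log median intensity across replicate spots of either orientation of each probe.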
With TTTATATAAATTTAAGTGCAAAATGAACAAGTGAAA, the “gcPBM binding intensity (ln)” value was 9.79.
For “AAAATATATATTTGTTGTACAATATTAATTATTAAA [XGTACX_site1612]” the value was 9.54.
For “TGCAAAGGTGAAAGAACACACAAAAAAAAAAAAAAA [CACACA_site4024]”, the “gcPBM binding intensity (ln)” value came to 9.47.
For “CACCATGTTAACAAAGCATGCATCTCTATAGTTTTA [TGCATGCA_site97]” the value was 9.7; for “AAAAAAAAAAAAAGAACATGCGACTTTAAGAACTGG [TGCATGCA_site792]”, 9.56; for “TATGAAAATAAAATATGTACATATTTTAAATGTTAT [XGTACX_site7352]”, 9.69.
Turning to “CAAATGTGTTCTTCAGGTACAGATACACATTTATGA [XGTACX_site2664]”, the “gcPBM binding intensity (ln)” value was 9.48.
For the sequence “TAAAAAATTATATATTGTACGAATGCATAAAAAAAA [XGTACX_site4606]”, the “gcPBM binding intensity (ln)” value turned out to be 9.67.
For “TAAATACATAGATGTACACACATTACAGATGTACAT [CACACA_site4692]” the value was 9.82.
For “ATTTATAAAATTAATGCACACATCAGCATTTATAAA [CACACA_site1025]” the value was 9.55; for “ATAAAGCACACCGACACACACATATTTATATTTATA [CACACA_site6620]”, 10.8.
Regarding “TTGTGTTATCCTTTTTTAGATCAACTATTTTTATTC [CACACA_negctrl_site145]”, the “gcPBM binding intensity (ln)” value was 9.77.
For “TATAAAATAAAAAATAAATATCTATATATATATATA [TGCATGCA_negctrl_site351]” the value was 9.51; for “ATAATTTGTAAAAGGAGTACAAAACCATACTTTTTT [XGTACX_site6076]”, 9.55; for “AAAGGAAAATTAAAAAGTACACATTTGAAAAAAAAA [XGTACX_site2724]”, 9.75.
Consider “ATGTATTTAATAAGAACACACATATATTTAATTTAA [CACACA_site5606]”, for which the “gcPBM binding intensity (ln)” value was 9.76.
“TTTTTTTTTTTAAGTTCACACATAAATTCGATTTAC [CACACA_site5057]”: the “gcPBM binding intensity (ln)” value was found to be 9.56.
For “ACCGTTTTTGTGTAATGTACAAAATTTCTGACAGTG [XGTACX_site4999]” the value was 9.63; for “ATAAGAAATGTAACTTGTACATAAGGATATATATTT [XGTACX_site236]”, 9.81.
For “TAATAATAAAAAAATAGTACATAAATAAAAATAATA [XGTACX_site4774]”, the “gcPBM binding intensity (ln)” value was determined as 9.74.
As to “CATTTATATAAATACACACACACAAAAAAAAAAAAA [CACACA_site5459]”, the “gcPBM binding intensity (ln)” value amounted to 10.2.
With “TTTATACATTTATATTGTACTAATTCGATTTTATAT [XGTACX_site5424]”, the “gcPBM binding intensity (ln)” value was found to be 9.93.
For “AATGATCATATATACACACACACAAAAAAAAAAAAA [CACACA_site4009]”, the “gcPBM binding intensity (ln)” value is 11.2.
Turning to “GGGAGGATAGTTCACAGTACCCAGGAAATCTACGGA [XGTACX_site2553]”, the “gcPBM binding intensity (ln)” value amounted to 9.36.
Take “GGTTCATAATATGGTTGTACATAAATATATATATAT [XGTACX_site7583]”: the “gcPBM binding intensity (ln)” value was determined as 9.86.
Regarding “ATATATATGTATAATCGTACAGTTAACGTATTCTTA [XGTACX_site5649]”, the “gcPBM binding intensity (ln)” value came out at 9.8.
For “AAACAGATAAATAAAAGTACACATTAAAAGGTAGCA [XGTACX_site4150]”, the “gcPBM binding intensity (ln)” value came out at 10.
For “GGATTTTAATGAACACGTACATAAAATTAAATAAAT [XGTACX_site7023]”, the “gcPBM binding intensity (ln)” value worked out at 9.54.
Take “TAATTAATTTCTTTACGTACATAATTAATATATATA [XGTACX_site7372]”: the “gcPBM binding intensity (ln)” value came out at 9.44.
For “TACTATATCATTTATTGTACAATATTTCTTCAGAAA [XGTACX_site1008]” the value was 9.66; for “CTTTGCCTTAAAAAGGAACACACATGCTTTTTTTAG [CACACA_site8219]”, 9.66.
Consider “TATAAAAGACTAAATATTATAGAAATATAAATATAA [TGCATGCA_negctrl_site237]”, for which the “gcPBM binding intensity (ln)” value worked out at 9.37.
On to “TAACAAGGTTTATATGCATGCAAACATAACCAAAAA [TGCATGCA_site824]”, for which the “gcPBM binding intensity (ln)” value is 9.54.
With “AATGGGTAAACATACACACACACATCTATATTTATA [CACACA_site7025]”, the “gcPBM binding intensity (ln)” value was found to be 10.8.
As to “ACTAGACAAAATATAATGCACACTATTATTTTTATT [CACACA_site2726]”, the “gcPBM binding intensity (ln)” value stood at 9.79.
In the case of “AATAATATACATATATATATTATATTGTAATTTTGT [TGCATGCA_negctrl_site1]”, the “gcPBM binding intensity (ln)” value was 9.64.
As for CATGAGGTATAAAAGGTGCAAATTAATGAGAACATT, the “gcPBM binding intensity (ln)” value was 9.77.
Consider “TTATATCAAGGGAATGCATGCATATCGTTTTGTATT [TGCATGCA_site327]”, for which the “gcPBM binding intensity (ln)” value is 9.63.
Turning to “TATTCTTATATATATACACACACAAAATATCTACAA [CACACA_site8144]”, the “gcPBM binding intensity (ln)” value came out at 9.95.
For “TTGCATTGATCAAACATACACACATGGTTAATAAAA [CACACA_site2084]” the value was 9.68; for “TATTTCTCACTGTATGGTACAGATATAAATTTTTAT [XGTACX_site8776]”, 9.62; for “TATATATATATATATGTGCGCATATATTTTTTTGTA [GTGCAC_site9983]”, 10.1.
For “ACAAAATTTACAAAATGTACAAAATATACAAAATAT [XGTACX_site6465]” the value was 9.75.
For “CACAAATAAATATTCACACATATATGTCTTATATAT [CACACA_site5323]”, the “gcPBM binding intensity (ln)” value was found to be 9.97.
In the case of “ATTACAATAAATTCGTGTACATGATACCGCCGCTAC [XGTACX_site8997]”, the “gcPBM binding intensity (ln)” value turned out to be 9.47.
On to “ATCAAATTTTTGTTATGTACACAATCATTTAATAAA [XGTACX_site810]”, for which the “gcPBM binding intensity (ln)” value stood at 9.55.
As for “TAATTATTATTAAATACACACACATACCTCCATGTT [CACACA_site9134]”, the “gcPBM binding intensity (ln)” value worked out at 10.5.
With “AAAAAAAAAAAATAGGTGCGTGTTACTTTTGTATGC [GTGCAC_site9524]”, the “gcPBM binding intensity (ln)” value was 9.79.
As for “AATTAACCGTGACACACACACATATAAATATAAATA [CACACA_site7790]”, the “gcPBM binding intensity (ln)” value came to 10.6.
Turning to “TGCCCTTTGGTTATAACACACATGCACACGTAAATA [CACACA_site7750]”, the “gcPBM binding intensity (ln)” value stood at 10.
As to “GGGAATATATAAGATACACACACAAATTAAATATAA [CACACA_site8898]”, the “gcPBM binding intensity (ln)” value stood at 10.5.
For “TATATATATATATATACACACACACCCACCAAAGCG [CACACA_site7904]” the value was 10.1.
Consider “ATGAAATATGCACAGTGTACTTTTATGAGGAACATA [XGTACX_site426]”, for which the “gcPBM binding intensity (ln)” value is 9.69.
As for “TTTTTAATACAAAAAAAATAATATGTTATATTTCAA [CACACA_negctrl_site35]”, the “gcPBM binding intensity (ln)” value came out at 9.38.
“TACAATTTATGACACACACACAATAATACCTATATA [CACACA_site6704]”: the “gcPBM binding intensity (ln)” value is 10.3.
On to “TATATATATATATGTGCACACATAAAGATATTATTT [CACACA_site3734]”, for which the “gcPBM binding intensity (ln)” value came out at 10.4.
Regarding “AATAAAATAATAGGCACACATATATATATATATTAT [CACACA_site273]”, the “gcPBM binding intensity (ln)” value was 9.9.
Take “ATATATCTACATATATGTACATATATGTATATGTAT [XGTACX_site5432]”: the “gcPBM binding intensity (ln)” value stood at 9.8.
For “ATATCCTACTTCTAGTGTACATATATGGACTGATGA [XGTACX_site3683]” the value was 9.54; for “CGTATTTTAATATTTACACACTTATTTTTTATATAA [CACACA_site125]”, 9.78; for “AATAAAAAAATAAAAAAAAAAAAAAATAAAAAAAAA [GTGCAC_negctrl_site12]”, 9.42.
Consider “TTTTGTAAAAGGTATATATATATATATATATATATA [GTGCAC_negctrl_site734]”, for which the “gcPBM binding intensity (ln)” value was 9.38.
Consider “TTTATATAGAAAAATTGTACGAATTACTTTTTTATA [XGTACX_site6843]”, for which the “gcPBM binding intensity (ln)” value worked out at 9.47.
For “TATAGCATATTTCACACACACATAATGAATATTATA [CACACA_site3545]”, the “gcPBM binding intensity (ln)” value was determined as 10.1.
On to “TTATTTTCTTTCTATGCACACGCACGTATTTGCCCA [CACACA_site9104]”, for which the “gcPBM binding intensity (ln)” value is 9.93.
As for TATAGTAAAATTAGGGTGCTTTTGTAACAAAAAAAA, the “gcPBM binding intensity (ln)” value came to 9.74.
For “TGCTTCATAAATAAAACATGCAATATAGAAATTAAA [TGCATGCA_site690]” the value was 9.48; for “AGAGTAGGAAATGGAAAAATAAAATAAATAAATAAA [XGTACX_negctrl_site69]”, 9.66; for “AAATATATATACCACACACACATACCTCTATTTGTA [CACACA_site1854]”, 11.1.
For “AATCCTTTAAAACACACACACAAAAAAAAAAAAAAA [CACACA_site642]” the value was 10.4; for “TTTAACGTTGAATATACACACATATATTTATTTATA [CACACA_site7695]”, 9.81; for “AAAATGTACTTTTTCTAAAGAGTAATGATGCTTGAT [CACACA_negctrl_site1124]”, 9.52.
On to “ATATATCATAATAAAAGTACTTATATATTTTATATA [XGTACX_site560]”, for which the “gcPBM binding intensity (ln)” value was determined as 9.51.
“AAAATAAATAAATATACACACCATATATATATTTTT [CACACA_site5573]”: the “gcPBM binding intensity (ln)” value is 9.85.
For “TACAAAAAAAGATGATGTACAATGAAAAATAAGAAA [XGTACX_site5840]”, the “gcPBM binding intensity (ln)” value was found to be 9.87.
For “AAAAAAAAAAAAAACACACACACAAATACAAATACA [CACACA_site414]” the value was 11.5; for “ATAAATAATTGTAGTTGTACATGATATTTTTATTAC [XGTACX_site550]”, 9.66; for “AAATGGACCTAATTATCACACATTATACTCGTTTTC [CACACA_site5996]”, 9.77.
For “TTGTTAAAATTATTAAGTTAAATATCGATTTGTAAA [XGTACX_negctrl_site429]” the value was 9.29.
Take “TATAAGTTTATATATACACACATATATATATATATA [CACACA_site3274]”: the “gcPBM binding intensity (ln)” value is 9.97.
In the case of “ATATTTATAACTTGTACACACAAATATGCATATATA [CACACA_site7583]”, the “gcPBM binding intensity (ln)” value was determined as 9.89.
Turning to “TTAAAATTTTTTTTTTTTTTTTTTTTTTTTTTTTTC [CACACA_negctrl_site957]”, the “gcPBM binding intensity (ln)” value stood at 8.97.
Regarding “TTATTATTCCCTCATTTTGTTACCATTATTTCAATT [CACACA_negctrl_site1023]”, the “gcPBM binding intensity (ln)” value was 9.92.
Turning to “AAAATAAAAAGAAAAAATAAAAAGAAAAAATAAAAA [CACACA_negctrl_site120]”, the “gcPBM binding intensity (ln)” value amounted to 9.57.
With “AGTGAAAAAAAATTTACACACATAAAATATAAACGA [CACACA_site3724]”, the “gcPBM binding intensity (ln)” value was 9.81.
“AAAAAAAATATAAGTGGTACTCACATAAAGACATAT [XGTACX_site3709]”: the “gcPBM binding intensity (ln)” value worked out at 9.93.
For “AAATAAAATACATATAAACACACATATAAACCAACA [CACACA_site8789]” the value was 10.2; for “TTTTTTATTCTTTTTGCACACAGGAAATTTACAGAT [CACACA_site1090]”, 9.81.
As for “TTTTTAGTTCATTAAACACACAAAAAAAAAAATAAA [CACACA_site6035]”, the “gcPBM binding intensity (ln)” value was 9.53.
